Reference: the supplement of paper PMC8047034
Where a name gives a salt, the structure may show the parent alone. The list shows a part of the results. Single values are uncertain, as repeats are few or missing.

What follows are compounds tested on Ov4Carbo (assay: log2 surviving fraction (library drug vs vehicle, or drug + carboplatin vs carboplatin alone; relative to plate median); ovarian cancer lines: OVCAR4 is platinum-sensitive and Ov4Carbo platinum-resistant; higher = more cell survival). Conditions: library drug concentration 10 µM; 7 days; carboplatin co-treatment 5 µM.

SMILES | log2 surviving fraction
Nc1nc(N)c2nc(-c3ccccc3)c(N)nc2n1 [triamterene] | -0.749
CCC(=O)O[C@]1(C(=O)SCF)[C@H](C)C[C@H]2[C@@H]3C[C@H](F)C4=CC(=O)C=C[C@]4(C)[C@@]3(F)[C@@H](O)C[C@@]21C [Fluticasone propionate (Flonase, Veramyst)] | -9.51
CCN1CCN(C(=O)N[C@@H](C(=O)N[C@@H]2C(=O)N3[C@@H]2SC(C)(C)[C@@H]3C(=O)O)c2ccccc2)C(=O)C1=O [Piperacillin Sodium] | 1.18
CC#CCn1c(N2CCC[C@@H](N)C2)nc2c1c(=O)n(Cc1nc(C)c3ccccc3n1)c(=O)n2C [Linagliptin (BI-1356)] | -1.05
C#CCN[C@@H]1CCc2ccccc21 [Rasagiline mesylate] | -0.189
CCN1CCN(c2cc(-c3ccc(F)cc3)c3c(n2)CCCCCC3)CC1 [Blonanserin (Lonasen)] | -1
CC[C@H]1OC(=O)C[C@@H](O)[C@H](C)[C@@H](O[C@@H]2O[C@H](C)[C@@H](O)[C@H](N(C)C)[C@H]2O)[C@@H](CCN2C[C@H](C)C[C@H](C)C2)C[C@@H](C)C(=O)/C=C/C(C)=C/[C@@H]1CO[C@@H]1O[C@H](C)[C@@H](O)[C@@H](OC)[C@H]1OC [Tilmicosin] | 0.517
C[N+](C)(C)C[C@H](O)CC(=O)[O-] [L-carnitine (Levocarnitine)] | 0.428
Fc1ccc(C(c2ccc(F)cc2)N2CCN(C/C=C/c3ccccc3)CC2)cc1 [Flunarizine 2HCl] | -2.85
